The full ranking holds about 110,000 compounds; the median of “z-score” is about -0.1, and the highest 2% start at about 2. The list shows a part of the results.
What follows are compounds tested against Metabotropic glutamate receptor 8 (Rattus norvegicus) (UniProt P70579) (assay: rat mGluR8 modulators via GIRK flux, primary screen, cell-based, thallium flux, HTS (AID 488969)). Settings: HEK293 rat mGluR8, GIRK (G protein-gated inwardly rectifying potassium channel) thallium flux, FluoZin2; at 10 µM; stronger effect = higher value; submaximal glutamate (EC20) added with thallium.
Chain of UniProt P70579 (P70579 whole entry, looked up): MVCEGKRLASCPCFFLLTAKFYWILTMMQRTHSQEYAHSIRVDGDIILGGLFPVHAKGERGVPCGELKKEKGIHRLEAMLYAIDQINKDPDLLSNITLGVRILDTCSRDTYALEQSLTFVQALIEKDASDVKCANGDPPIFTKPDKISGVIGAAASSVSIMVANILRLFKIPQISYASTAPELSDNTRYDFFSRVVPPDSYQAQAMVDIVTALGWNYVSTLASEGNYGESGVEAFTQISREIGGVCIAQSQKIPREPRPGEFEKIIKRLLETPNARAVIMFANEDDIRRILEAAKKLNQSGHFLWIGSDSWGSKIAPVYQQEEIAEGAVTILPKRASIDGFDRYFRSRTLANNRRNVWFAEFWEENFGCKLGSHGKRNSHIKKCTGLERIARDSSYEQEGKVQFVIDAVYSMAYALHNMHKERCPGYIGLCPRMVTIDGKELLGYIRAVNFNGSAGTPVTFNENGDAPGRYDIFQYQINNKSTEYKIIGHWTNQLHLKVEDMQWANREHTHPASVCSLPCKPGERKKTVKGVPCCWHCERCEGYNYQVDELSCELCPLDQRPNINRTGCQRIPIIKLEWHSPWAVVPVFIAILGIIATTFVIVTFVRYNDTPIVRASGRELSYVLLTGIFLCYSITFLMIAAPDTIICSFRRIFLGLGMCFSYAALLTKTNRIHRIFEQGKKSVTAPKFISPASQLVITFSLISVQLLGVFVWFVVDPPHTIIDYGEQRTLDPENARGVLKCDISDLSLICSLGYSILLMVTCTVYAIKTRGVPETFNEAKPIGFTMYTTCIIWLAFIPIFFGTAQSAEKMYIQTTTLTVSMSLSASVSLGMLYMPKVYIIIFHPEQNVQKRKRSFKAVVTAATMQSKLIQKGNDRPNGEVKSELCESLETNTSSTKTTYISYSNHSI

Compound	z-score
COc1ccc2nc(NC(=O)Cn3cnc4c(=O)n(C)c(=O)n(C)c43)sc2c1	0.612
CC(C)CNC(=O)C(=O)N/N=C/c1cccs1	0.233
COc1ccc(/C=C/C(=O)NC2CCCCCCC2)cc1S(=O)(=O)N1CCOCC1	-0.052
N#Cc1c2c(c(Nc3ccccc3)n3c1nc1ccccc13)CCC2	-0.313
Cc1ccc(/C=N/NC(=O)C2=NNC(c3ccccc3)(c3ccccc3)C2)c(O)c1	0.221
COc1ccc(-n2cnnc2)cc1	0.391
Nc1nc(SCC(=O)NCc2ccccc2Cl)[nH]c(=O)c1NC(=O)c1ccccc1F	-0.478
CCC(C(=O)c1ccccc1)N(C(=O)c1ccccc1Cl)N1C(=O)C2C3C=CC(C3)C2C1=O (stereo unspecified)	-0.0769
COc1ccc(Nc2nnc(SCC(=O)c3cc(C)n(CC4CCCO4)c3C)s2)cc1 (stereo unspecified)	-0.444
CCOC(=O)c1oc2c(C)c(O)ccc2c(=O)c1-c1nncn1-c1ccccc1	-0.311
Cc1ccc(NS(=O)(=O)c2cc(C(=O)NCc3ccccn3)ccc2Cl)cc1	-0.139
CCOC(=O)CSc1nc(C)c(C(=O)OCC)s1	0.58
Cc1cccc(C)c1Nc1nnc(SCc2cc([N+](=O)[O-])cc3c2OCOC3)s1	-0.177
COC(=O)c1c(C)n(-c2ccc(C)cc2)c2ccc(O)cc12	-0.121
Cc1cc(C)n2ncc(C(=O)NCCc3ccccc3)c2n1	0.497
O=C(COC(=O)c1ccccc1NC(=O)c1ccco1)NC1CCCCC1	-0.275
CC(C)(C)NC(=O)COC(=O)Cc1ccc(Cl)cc1	0.486
COc1ccc(C2=CC(c3ccc(OC)c(OC)c3)NC(=S)N2)cc1 (stereo unspecified)	-0.0454
Cc1oc(-c2ccccc2)cc1C(=O)Nc1ccccc1	0.178
CC(=O)c1ccc(NC(=O)c2cnn3ccccc23)cc1	-0.521
CCCCC(=O)NC1=C(C(=O)OC)SCC1	0.909
COc1ccc2c(c1)CCCC21NC(=O)NC1=O (stereo unspecified)	-0.347
Cc1nc2ccccn2c1/C(O)=C1\C(=O)C(=O)N(CCN2CCOCC2)C1c1ccncc1 (stereo unspecified)	-0.0476

Compound	z-score
NC1=NS(=O)(=O)NC1c1ccc(Cl)cc1 (stereo unspecified)	0.00171
COc1ccc(C(=O)/C=C/c2ccc(OC)c(COc3ccc(F)cc3)c2)cc1	-0.119
Cc1cccc(Nc2nnc(-c3ccc(N4CCOCC4)c([N+](=O)[O-])c3)c3ccccc23)c1	-2.11
CCC(C)NC(=O)CC(c1ccc(OC)cc1)n1cccc1 (stereo unspecified)	-0.148
CC(C)NC(=O)NS(=O)(=O)c1cnccc1N1CCCCC1	0.161
CCCOc1ccc(N2C(=O)CC(NCCNc3ccc(S(=O)(=O)CC)cc3)C2=O)cc1 (stereo unspecified)	0.265
CC1CC2=C(C(=O)O1)C(c1ccccc1)Nc1ccccc1N2 (stereo unspecified)	-0.161
CCC(C)(C)c1ccc(OCCN2C(=O)NC(C)(C)C2=O)cc1	-0.0536
CCOC(=O)C1=C(c2ccccc2)O/C(=C(\C(=O)OC)C(F)(F)F)S1	-0.566
COCCNC(=O)CNS(=O)(=O)c1ccc2nc(C)sc2c1	-0.46
COCCn1c(C)cc(C(=O)COc2nc3ccccc3nc2C)c1C	-0.493
Cc1ccc(-c2nnc(NCc3nc4ccccc4[nH]3)c3ccccc23)cc1S(=O)(=O)N1CCCCC1	-0.412
Cc1ccccc1OCC(O)Cn1nnc2ccccc21 (stereo unspecified)	-0.244
CCCCC(CC)C(=O)Nc1ccc(C#N)cc1 (stereo unspecified)	-0.113
CCN(CC)c1ccc(C(=O)OCC(=O)Nc2sccc2C#N)cc1	-0.224
CCCc1nnc(NC(=O)c2ccncc2)s1	0.134
CSCC[C@H](Nc1ncnc2sc(C)c(C)c12)C(=O)O	-0.154
O=C(Nc1ccc2c(c1)OCO2)c1cnn2c(C(F)(F)F)cc(-c3ccco3)nc12	-0.403
CCCCNC(=O)c1onc(CSc2cccc(OC)c2)c1C(=O)O	-0.391
O=C(NC(Cc1ccccc1)c1ccc2c(c1)OCCCO2)c1ccc(F)cc1 (stereo unspecified)	-0.339
CCOC(=O)c1c(NC(=O)CSc2nnc(N)s2)sc(C)c1-c1ccc(C)cc1	-0.388
COc1ccc(CNc2ccccc2SC)cc1OC	-0.136
Cc1cc(/C([O-])=C(/C(=S)Nc2ccc(F)cc2)[n+]2ccccc2)c(C)n1-c1ccc(F)cc1	-0.454

Compound	z-score
CN(CC(=O)N1CCc2ccccc21)S(=O)(=O)c1cccc2cccnc12	-0.146
CC(=O)Nc1ccc(S(=O)(=O)NCCC(=O)Nc2ccc(C)c(Cl)c2)cc1	-0.0921
O=C(COC(=O)c1cc(Cl)ccc1Cl)NCCN1C(=O)CSC1=O	-0.138
CN(C)CCNc1oc(COc2ccc(Cl)cc2)nc1C#N	1.5
CC(Oc1ccc(-c2ccccc2)cc1)C(=O)N1CCOCC1 (stereo unspecified)	-0.496
Cc1nc(NCCCO)c(C#N)c2c1COC(C)(C)C2	1.53
CCCC(=O)Nc1ccc2nc(SCC(=O)Nc3nccs3)sc2c1	0.031
CCN(CC)c1c([N+](=O)[O-])c(=O)sc2ccccc12	-0.00969
CCCn1c2c(c(O)c(C(=O)NC)c1=O)CCCC2	-0.476
CCOCCCNC(=O)C1CCCN1S(=O)(=O)c1ccc(Cl)cc1 (stereo unspecified)	0.113
O=C(Nc1nc(-c2ccccc2)ns1)c1cccs1	-1.46
Cc1ccc(S(=O)(=O)O/N=C2/CCCc3occc32)cc1	-0.153
CCN(CC)S(=O)(=O)c1cccc(-c2nnc(SCc3nc4ccccc4s3)o2)c1	0.16
Cc1ccc(-c2nnc(N3CCN(C(=O)Cn4c(=O)n(C)c5ccccc54)CC3)c3ccccc23)cc1	1.84
Cc1ccsc1CNn1cnnc1SCc1ccccc1F	1.15
CCCCc1ccc(-c2c(C#N)c(N)nc3c2CCCC3)s1	-0.0652
CSc1ccccc1NC(=O)CN(c1ccccc1Br)S(C)(=O)=O	2.04
CN1CCCN(C(=O)c2cc(=O)[nH]c3ccccc23)c2nc3ccccc3nc21	-0.15
O=C(O)c1c[nH]c2ccc(S(=O)(=O)N3CCOCC3)cc12	-0.375
CC(C)OP(=O)(OC(C)C)C(Nc1ccccc1)c1ccccc1C(F)(F)F (stereo unspecified)	-0.309
Cc1cc(C)c(S(=O)(=O)N(CC(=O)O)CC(=O)O)c(C)c1	0.0533
Cc1ccccc1OCCSc1nnc(C)n1-c1ccccc1	-0.0941
N#Cc1cc(N)ccc1Sc1ccc(Cl)cc1	0.503

Compound	z-score
CCC(C)[C@H](NC(=O)OC(C)(C)C)C(=O)N/N=C/c1ccc2nccnc2c1 (stereo partly specified)	0.121
COc1ccccc1OC1OC2COC(c3ccco3)OC2C(O)C1NC(C)=O (stereo unspecified)	1.75
COc1cc(-c2nc3ccc4ccccc4c3c3c2CCC3)cc(OC)c1O	-0.255
Cc1ccc(NC(=O)CSc2n[nH]c(=O)n2C2CC2)cc1S(=O)(=O)N1CCOCC1	-0.201
Cc1ccc(/C=N/n2c(-c3ccco3)n[nH]c2=S)s1	0.259
CN(C)c1ccc(C2N3CC4(C)CN2CC(C)(C3)C4O)cc1 (stereo unspecified)	-0.147
COc1ccc(NC(=S)N2CCN(C(=O)C3CCCO3)CC2)c(OC)c1 (stereo unspecified)	-0.191
O=C1C2C3C=CC(C3)C2C(=O)N1CCc1ccccc1 (stereo unspecified)	-0.187
COc1ccc(NC(=O)Nc2cccc([N+](=O)[O-])c2)cc1Cl	0.026
Cn1c(-c2ccccc2)cccc1=O	0.333
OCc1ccccc1CNCc1ccccc1	0.0112
O=C(c1cc(-c2ccncc2)nc2ccccc12)N1CCN(c2ccccn2)CC1	-0.526
COc1cccc(CN(C(=O)Cc2c[nH]c3ccccc23)C(C(=O)NC2CCCCC2)c2cccs2)c1 (stereo unspecified)	0.207
COc1cc(NC(=O)Cc2ccc([N+](=O)[O-])cc2)c(C(=O)O)cc1OC	-0.305
O=C(NC1CCCCC1)C1(c2ccccc2)CC1(Cl)Cl (stereo unspecified)	-0.316
CCOC(=O)C1CCN(c2nc(-c3ccccc3)nc3c2oc2ccccc23)CC1	-0.609
O=C(c1ccc(Cl)c([N+](=O)[O-])c1)N(Cc1ccccc1)C1CCS(=O)(=O)C1 (stereo unspecified)	2
COc1cc(S(=O)(=O)NCc2ccccc2)ccc1F	0.606
Cc1cc2c(c(=O)n1CCN(C)C)C(c1ccncc1)C(C#N)=C(N)O2 (stereo unspecified)	-0.0982
CCSc1ncc(Cl)c(C(=O)Nc2sc3c(c2C(=O)NCc2cccnc2)CCCC3)n1	-0.0832
Nc1ccc(S(=O)(=O)NNC(=O)C(=O)NNc2ccccn2)cc1	-0.11
N#Cc1ccc(-c2ccco2)nc1SCC(=O)c1ccc(Cl)cc1	0.533
Cc1ccc(OCC(=O)O)c(-n2nc3ccccc3n2)c1	0.024

Compound	z-score
COc1ccc(-c2nc3ccccc3o2)cc1NC(=O)c1ccc(Br)o1	-0.127
CCc1nc(SCC(=O)Nc2ccc(C(=O)O)cc2)n[nH]1	1.07
O=C(CSc1nc2ccccc2c(=O)n1-c1ccc(F)cc1)NCc1ccco1	0.000137
Cc1cc(C(=O)NCCC(c2ccccc2)c2ccccc2)c(C)o1	-0.167
Cc1nn(C)cc1/C=N/O	0.0629
Fc1ccc(-c2n[nH]c(=S)n2/N=C/c2c[nH]c3ccccc23)cc1	-0.0688
CCOC(=O)NN1C(=O)c2ccccc2NC1c1ccc(N(C)C)cc1 (stereo unspecified)	-0.142
Cc1c(C(=O)Nc2ccc(OCc3ccccc3)cc2)cccc1[N+](=O)[O-]	0.00171
COc1ccc(CC(=O)c2ccc(O)cc2O)cc1OC	-1.61
CCc1c(C)c2cc(Cl)c(O)c(CN(CC)CC)c2oc1=O	-0.0735
O=C(CSc1nnc(-c2ccccc2)o1)Nc1ccccc1F	-0.28
Cc1ccc(CN2CC(C(=O)Nc3ccc(S(=O)(=O)Nc4cc(C)nc(C)n4)cc3)CC2=O)cc1 (stereo unspecified)	0.368
C=CCn1c(/N=C/c2ccc3c(c2)OCO3)nc2ccccc21	-0.0867
O=C(CS(=O)(=O)c1ccc(Cl)c(Cl)c1)Nc1ccccc1Cl	0.0671
CC(C)COc1ccc(-c2nn(-c3ccccc3)cc2C(=O)Nc2nccs2)cc1	0.0447
Cc1cc(C)nc(SCc2nnc(SCC(=O)Nc3ncc(C)s3)n2Cc2ccco2)n1	-0.496
CC(C)Cc1nc2sc3c(=O)n(N)cnc3c2c2c1COC(C)(C)C2	-0.375
Cc1ccc(/C=C/C(=O)c2ccc(C)cc2)cc1	0.025
CN(C)c1ccc(/C=C2/SC(=O)N(CCN=C3NS(=O)(=O)c4ccccc43)C2=O)cc1	-0.133

Source: PubChem BioAssay AID488969 (Vanderbilt High Throughput Screening Facility, 2010)
